Results published in the supplement of paper PMC10126150.
Values marked as one replicate rest on one cluster of the flow cell; about a third of the high ones do not repeat.

Tested on: ATP
Assay: switch fluorescence ratio, 500 uM ATP over buffer (Cy3 cluster intensity, sum of 5 cycles each) (fold (ratio)); higher = stronger signal-on switching upon ATP binding; sequences stand for … in TCGTCGGCAGCGTCAGATGTGTATAAGAGACAGTTTTTTTTTTTTTTTTTTTTTTTTT…TC
Settings: aptamer strand: ATP DNA aptamer (quencher-CACCTGGGGGAGTATTGCGGAGGAAGG + anchor), 100 nM annealed; ATP concentration: 500 uM; one replicate
Summary of the method: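 The quencher-labelled ATP aptamer, at 100 nM, was annealed to Cy3-labelled switching-strand clusters on a modified Illumina MiSeq flow-cell. The clusters were imaged in selection buffer, then after 15 min with 500 uM ATP at 22 °C, and this buffer/ATP cycle ran five times with NaOH stripping and re-annealing between runs. Per-cluster fluorescence ratios, summed target-cycle over summed buffer-cycle Cy3 intensity, were averaged per switch-domain sequence. Clusters outside 100-1000 RFU were excluded.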
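Further: ATP exposure 15 min at 22 °C before imaging.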

Sequence | switch fluorescence ratio
TGAACCCATT | 1.01
GGATATGTCG | 1
ATGGCTCGAC | 1.05
GATGCTTCCG | 1.02
CCCCTGGTTA | 1.08
CGACTTTGTT | 1.04
TCGTGGTCAT | 0.989
CGAATATGTA | 1.02
AGAGACTCAG | 1.02
TGCAGGCAAC | 1.02
TTTCAATTTC | 1.05
GGGGTAGGCT | 1.03
CCGTGTGTTT | 1.03
ATAACTTTT | 0.96
TTATACGCCC | 1.28
GCGGTATGCA | 0.969
TCAATATTTA | 0.982
CTTTGGACG | 1.03
CGGCGGCGTG | 1.04
CGTTACTTGA | 1.01
TAATAAGGCC | 0.97
TTCGTGGAAA | 1.04
CCCGTAAGTT | 1.1

Sequence | switch fluorescence ratio
TATCAGTGCC | 1.03
CAGCAATCGC | 3.22
ATGCTAGTTA | 1.01
TTTCGTTAGT | 0.998
GTTTGACGCG | 0.921
GTTTGGCGCG | 1.01
GACTGCCCCT | 1.09
ACCGGAATGC | 1.17
AGAGAGTCGT | 1.01
GTGAGAAATG | 0.984
CCGGGTCGCT | 1.02
GGGTCCTCAG | 1.02
GGAGGTTAT | 0.97
ACTTTAGTCC | 1.03
ATTGACGGTA | 1.07
ATATTTGTTC | 1.05
ACACATGGGC | 1.02
TTCCATACTT | 1.02
ACTCGGGGG | 1.07
GGCGGAGATT | 1
AGCTGAGGT | 0.975
TTGATGCTGC | 1.06
AATCAATGCT | 1.1

Sequence | switch fluorescence ratio
ATATAGACGT | 1.03
TGTTACAGAA | 1.06
GAGGACCA | 1.04
TGCTACAGAA | 1.04
TAGGCCACAA | 1.04
TTCAGCTAAG | 1.02
TAAGGGCTAG | 1.02
GTTAAAGGTT | 1.08
GTGTGCATC | 0.994
TGCGGCGTCC | 1.03
CGAGTAGAGT | 1
GCTGAATCTC | 0.983
TCGAAATGGG | 0.95
TAATGTGCGA | 1.01
AGTTAGTTAC | 1.02
GCGGCCTGAG | 1.04
ATCTGAAAC | 1
AGCGGACAGG | 1.04
CATCATTAGT | 1.02
AAAAGTGCC | 1.07
CGGGCTAGCA | 0.965
TTCCAGAGGA | 0.987
ATCTGCTGGG | 1.02

Sequence | switch fluorescence ratio
AAGCATAAAG | 1.06
ATCGACGCCA | 1.94
AACGGGCTCT | 1
CTTAATCTGG | 0.995
TCCGATGGGA | 0.978
GCGGAATTCC | 1.01
GGGCCGGCGG | 0.987
TTGGATTGGA | 1.02
TTTACGTCA | 1.09
TCCTATCCAT | 1.04
CTTCCCCTCG | 1.34
CCCACATAGC | 1.32
TAGGCTAATT | 1.01
CCTTTTTCAG | 1.27
CTGTTACAT | 1.06
TAATCGAGAG | 1.01
TTACTAAAGT | 0.981
CTGCGTCAGA | 0.989
TTGTGCGACG | 0.944
TAGAGGTAC | 1.01
AGGCGTCCGT | 0.991
AGCCTATATT | 1
TTCGCGGATT | 1

Sequence | switch fluorescence ratio
GTGAAATGGC | 0.914
ATCGAACCCG | 1.05
GCTCATACCA | 1.03
TGCGGGACAA | 0.991
CCTTGGTTCG | 1.04
TAGCGGTTAC | 1.49
AGGTTTTAG | 1.03
GCACGTCTTG | 1.15
CCGGCGCACG | 2.59
AGGCAGGATT | 1.01
ATTAGCCTGT | 1.02
ATTGGCCACG | 1.25
CTCCAATGAT | 1.29
ATGGACGCCC | 1.02
ACCGAGGTAG | 1.02
GCGATTATCC | 1.12
GATAGTCCAT | 1.03
AGTAGTCATT | 0.95
GTTTAGTAAC | 0.98
AATTCATTCG | 1.03
CGGATCAA | 1
GTTGTACTGA | 0.969
AATTAGTGAT | 1.01

Sequence | switch fluorescence ratio
GGGGATAGGT | 0.996
GTTTTTACAG | 0.973
CGAGCCCAAC | 1.07
GAAAATCTAA | 0.968
ACTGGGAAAT | 0.995
AGTGTATATT | 1.04
CCTGTTTGTC | 0.967
GTGCCTTCCG | 2
CTGAAGCTGG | 1.93
GAAAATAAAC | 1.69
CCAATTGATG | 1.02
GCTATGGAGT | 0.993
GCTAGGATAA | 0.981
GGGGCCGAAA | 0.963
CGTTTCTATA | 1.01
AAATTTTCT | 0.995
ACCCGGTGCA | 1.69
AAAGCGGATA | 1.01
GATCGGAATT | 1.05
AACTGGGCGC | 1.12
AGGCCAAGTA | 0.988
TCCTGCTCGA | 0.952
GTTCCCATGC | 1.27

Sequence | switch fluorescence ratio
AGCCCGTCGG | 1.02
GAAAAAACTA | 1.01
GGTGCGTCTC | 1.01
TTTTCGTCGG | 1.05
ACGTCCACTT | 1.76
GAGCCGGGGA | 1.07
GAGCATTTTG | 0.984
TGAAATAGCC | 1.03
GGTAGGGCCA | 1.03
GCATATCCT | 1.05
AATGGGAGTA | 1
GAACTTAATC | 1.04
AAGTTCTGTG | 1.06
CTTCGTATAG | 1.24
CCATTCGGGT | 1.02
ATTATACAGA | 1.03
TCACAGGGAT | 1.03
TGCAACAGGG | 1.08
TGACGGGTCT | 0.988
